Assay results published in PMC4336329 (PLoS ONE, 2015).
Screen size: about 310,000 compounds; about 2,200 (0.71%) showed an effect of 50% or more. Effects have a minus sign here. Some of the results follow.

target: human ether-à-go-go-related gene (hERG) potassium channel (human, UniProt Q12809); test: primary screen, population patch clamp on CHO cells stably expressing hERG
Sequence (Q12809 whole entry, looked up): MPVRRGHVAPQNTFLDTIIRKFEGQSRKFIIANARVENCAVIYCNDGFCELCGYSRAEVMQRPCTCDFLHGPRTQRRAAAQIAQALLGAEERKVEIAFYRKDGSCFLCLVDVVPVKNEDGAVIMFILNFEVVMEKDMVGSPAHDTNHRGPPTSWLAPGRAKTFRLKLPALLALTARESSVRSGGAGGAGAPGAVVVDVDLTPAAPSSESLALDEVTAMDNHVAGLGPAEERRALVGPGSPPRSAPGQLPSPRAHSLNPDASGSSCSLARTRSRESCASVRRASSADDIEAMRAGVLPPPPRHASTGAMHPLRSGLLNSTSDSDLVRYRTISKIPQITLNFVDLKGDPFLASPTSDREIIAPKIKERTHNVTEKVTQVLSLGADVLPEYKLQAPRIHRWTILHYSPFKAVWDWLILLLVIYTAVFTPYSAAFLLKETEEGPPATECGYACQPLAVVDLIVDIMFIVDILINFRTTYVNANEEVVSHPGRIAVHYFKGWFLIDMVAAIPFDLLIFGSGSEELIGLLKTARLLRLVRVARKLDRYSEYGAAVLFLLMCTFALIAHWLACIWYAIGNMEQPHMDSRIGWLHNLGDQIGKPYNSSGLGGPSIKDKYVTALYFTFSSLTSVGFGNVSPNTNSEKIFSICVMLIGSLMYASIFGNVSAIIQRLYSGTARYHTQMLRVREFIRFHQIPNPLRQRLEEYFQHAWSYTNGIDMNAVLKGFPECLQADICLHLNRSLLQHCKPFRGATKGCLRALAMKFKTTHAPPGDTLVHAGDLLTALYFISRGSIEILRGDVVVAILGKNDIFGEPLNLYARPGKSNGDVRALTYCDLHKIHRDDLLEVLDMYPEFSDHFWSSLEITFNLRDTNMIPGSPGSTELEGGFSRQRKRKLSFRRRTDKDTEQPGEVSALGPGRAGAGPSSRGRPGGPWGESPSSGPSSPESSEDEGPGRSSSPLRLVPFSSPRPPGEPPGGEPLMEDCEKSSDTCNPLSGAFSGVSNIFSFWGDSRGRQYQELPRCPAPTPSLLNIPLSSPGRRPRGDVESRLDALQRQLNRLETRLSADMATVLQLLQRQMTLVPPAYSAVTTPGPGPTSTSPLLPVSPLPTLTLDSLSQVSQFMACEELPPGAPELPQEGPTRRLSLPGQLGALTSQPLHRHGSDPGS

Point of comparison: `O=C(O)CSCC(=O)Nc1ccc(Br)c(C(F)(F)F)c1`, “hERG current change (%, negative = inhibition) at 1uM” value 12.2%. Against it:
- Cc1occc1-c1n[nH]c(=S)n1-c1ccccc1 — lower, 11.2%
- C[C@H](NS(=O)(=O)c1ccc(Cl)cc1)C(=O)OCC(=O)NC(=O)Nc1ccc2c(c1)OCCO2 — lower, 9.01%
- O=C(c1cn(Cc2ccccc2)nc1-c1cccnc1)N1CCN(Cc2c(F)cccc2Cl)CC1 — lower, 4.63%
- O=C(CCCCCNC(=O)c1ccccc1)N/N=C/c1ccc(O)cc1O — lower, 3.22%
- CCCCCCCSc1cc(OC)c(CCN(C)C)cc1OC.O=C(O)/C=C\C(=O)O — lower, -5.92%
- CC1=CC(C)(C)n2c(O)c(N=NC(N)=S)c3cccc1c32 — lower, 8.08%
- OCC1(CC2CCCCO2)CCN(C/C=C/c2ccccc2)CC1 (stereo not drawn) — lower, -2.99%
- Cc1cc(=O)n(-c2ccccc2)n1-c1ccccc1 — lower, -0.718%
- COc1ccccc1Nc1nnc(SCC(=O)Nc2cc(C)on2)s1 — lower, 1.86%
- CCOc1ccc(S(=O)(=O)NCc2ccco2)c2ccccc12 — lower, -3.63%
- N=C1/C(=C/c2ccc(-c3cccc(C(=O)O)c3)o2)C(=O)N=C2SC(CC(=O)N3CCOCC3)=NN12 — higher, 12.8%
- CCCCCCCC1(C)NC(=O)N(c2ccccc2)N1 (stereo not drawn) — lower, 10.1%
- CCCCCCCCCC(=O)NNC(=O)c1c(O)c2ccccc2n(CCC)c1=O — lower, 11.1%
- COCCCNC(=O)CCn1c(=O)c2ccccc2n(CC(=O)NCCC2=CCCCC2)c1=O — higher, 17.3%
- Cl.Oc1ccc(Nc2ncnc3c2oc2ccccc23)cc1 — lower, 9.49%
- COc1cc2c(cc1OC)C(COc1ccc(F)cc1)NCC2 (stereo not drawn) — lower, -2.56%
- COc1ccc(-c2nnn(CC(=O)N3CCN(c4ccccc4OC)CC3)n2)cc1 — lower, 7.71%
- COc1ccc(OC)c(/C=N/NC(=O)c2ccc(Cn3cc([N+](=O)[O-])cn3)o2)c1 — lower, 4.33%
- O=C(Nc1cccc(C(=O)N2CCOCC2)c1)c1cncc(Br)c1 — lower, 9.67%
- O=C(CN(Cc1ccccc1Cl)C(=O)c1csnn1)NCc1ccc(F)cc1 — lower, -0.0793%
- CCOC(=O)c1ccc(-[n+]2c(-c3ccccc3)cc(-c3ccccc3)cc2-c2ccccc2)cc1.[O-][Cl+3]([O-])([O-])[O-] — lower, 8.22%
- Cc1ccc(C)c(N2CCN(C(=O)Cc3cn(C)c4ccccc34)CC2)c1 — lower, 9.64%
- O=C(Nc1ccc(N2CCOCC2)c2nonc12)C1CCCC1 — lower, 1.61%
- CC(=O)Nc1sc2c(c1C#N)CCC(C)C2 (stereo not drawn) — lower, 11.7%
- COc1cccc(C2NC(=O)CCC2[N+](=O)[O-])c1OC (stereo not drawn) — lower, 10%
- Cc1nn2c(=O)cc(CSc3ccccc3NC(=O)c3ccccc3F)nc2s1 — higher, 15.2%
- CCOC(=O)C(=O)NN=C(c1ccccc1)c1ccccc1 — the same, 12.2%
- CCCn1c(O)c(N=NC(=O)c2ccco2)c2ccccc21 — lower, 4.93%
- COc1ccc(CCNC(=O)c2cc([N+](=O)[O-])cc([N+](=O)[O-])c2)cc1OC — higher, 14.4%
- COc1ccccc1NC(=S)NC(=O)CCCOc1ccc(Cl)cc1Cl — higher, 21.5%
- COc1ccc(OCC(O)CN2CCN(c3ncccn3)CC2)cc1.Cl (stereo not drawn) — lower, 1.7%
- COc1ccc(OC)c(S(=O)(=O)Nc2ccc3oc(C)c(C(C)=O)c3c2)c1 — higher, 14.2%
- CC(=O)Oc1ccc(N(C(C)=O)S(=O)(=O)c2ccc(C)c([N+](=O)[O-])c2)cc1 — lower, 7.73%
- CC(C)(C)c1ccc(C(=O)N2CCCN(C(=O)c3ccc(C(C)(C)C)cc3)CC2)cc1 — lower, 5.66%
- O=C(COc1ccccc1)N1CCN(Cc2c[nH]c3ccccc23)CC1 — lower, -18.1%
- Cc1ccc(Sc2ccc(C(=O)NC(C)C)cc2[N+](=O)[O-])cc1 — lower, 6.1%
- CN1C(=O)C(C)(C)c2cc(S(=O)(=O)N3CCCCCC3)ccc21 — lower, 11.8%
- O=c1[nH]cccc1-c1nc2ccccc2n1Cc1ccccc1F — higher, 15.5%
- NC(N)=N/N=C/c1cc([N+](=O)[O-])ccc1O — lower, 5.33%
- COc1ccc(N=Cc2[nH]c3ccccc3c2O)cc1 — lower, 10.7%
- CCOc1cc(C2C(C(=O)OC)=C(C)N=C3SCCC(=O)N32)ccc1OC(C)=O (stereo not drawn) — higher, 14%
- COc1cccc(CN(C)C(=O)CNC(=O)c2sc3ccccc3c2Cl)c1OC — lower, 6.71%
- O=C(CS(=O)(=O)c1ccccc1)N1CCN(c2ccccc2)CC1 — lower, 11.9%
- Cc1ccccc1NC(=O)C1Cc2ccccc2CN1C(=O)c1ccco1 (stereo not drawn) — lower, 7.84%
- COc1ccccc1C(=O)Nc1cccnc1 — lower, 10.9%
- Cc1cc[n+](C2=C([O-])c3ccccc3C(=O)/C2=N\S(=O)(=O)c2cccs2)cc1C — lower, 7.95%
- CC(=O)NC1(c2ccc(F)cc2)CCN(C(=O)c2c(F)cccc2F)CC1 — lower, 8.22%
- Cn1ccsc1=NC(=O)c1cccc(OC(F)F)c1 — lower, 4.36%
- CC(C)C(C)(NC(=O)c1cccn(Cc2ccc3c(c2)OC(F)(F)O3)c1=O)C(N)=O (stereo not drawn) — lower, 1.98%
- O=C(CCN1C(=O)c2ccccc2S1(=O)=O)Nc1cccc(F)c1 — lower, 11.4%
- COc1cc(Cl)c(C)cc1NC(=O)c1ccc2c(SCC(=O)O)c3c(nc2c1)CCCC3 — lower, 6.13%
- COc1cccc(COC(=O)CCNC(=O)c2ccc(Br)cc2)c1OC — lower, 10.9%
- O=C(Nc1ccn(Cc2ccccc2F)n1)c1ccc(COc2ccc(Cl)cc2Cl)o1 — higher, 17.9%
- COC(=O)c1cnn2c3c(c(C)nc12)CCCC3 — lower, 9.64%
- COC(=O)c1[nH]c2ccccc2c1NC(=O)CNC1CCCCC1 — lower, 8.9%
- O=C(NCC(c1ccco1)N1CCCCC1)c1cccc(NS(=O)(=O)c2ccc(Br)cc2)c1 (stereo not drawn) — lower, 7.15%
- CCN(CC)CCNC(=O)c1ccc(-n2c(C)cc3c2CCCC3=O)cc1 — lower, 10.7%
- Cc1cc(-c2ccc(C)c(S(=O)(=O)NCCCN3CCN(c4ccccc4F)CC3)c2)on1 — higher, 13.5%
- N=C(SC1CC(=O)N(c2ccc(F)cc2)C1=O)N1N=C(c2ccccc2)CC1c1ccccc1 (stereo not drawn) — higher, 19.8%
- O=C(CNCc1ccco1)Nc1cccc(S(=O)(=O)N2CCCCC2)c1.O=C(O)C(=O)O — lower, 0.38%
- CCn1c(CC(=O)Nc2ccccc2)nnc1SCC(=O)NC1CCCC1 — lower, 5.86%
- CCn1c2c(c3cc(Cl)ccc31)CCCC2=O — lower, 9.17%
- COc1ccc(-c2nc3ccccc3o2)cc1NC(=O)CSc1ccc(Cl)cc1 — higher, 33.5%
- O=c1c(Cl)c(NCCO)ncn1-c1ccccc1 — lower, -0.547%
- C/C(=N/Nc1ccc([N+](=O)[O-])cc1)c1ccc(C)cc1C — lower, 8.95%
- c1ccc(-c2csc(Nc3ccccn3)n2)cc1 — lower, 10.4%
- S=C(Nc1cccnc1)N1CCc2ccccc21 — lower, 11.5%
- CC(C)c1ccccc1OCCCCCN1CCOCC1 — lower, 6.57%
- [Br-].c1ccc(C[n+]2csc3ccccc32)cc1 — lower, 11.5%
- COc1cc(C(C)=O)ccc1COc1ccc(C(=O)OCC(N)=O)cc1OC — lower, 4.9%
- CCOC(=O)c1cnc2ccc(C(=O)OC)cc2c1NCCc1ccc(OC)c(OC)c1 — lower, 0.861%
- O=C(Nc1nc2cc3c(cc2s1)OCO3)c1ccc(N2C(=O)CCC2=O)cc1 — higher, 14.6%
- CC(C)=CC1C(C(=O)Nc2ccc(S(=O)(=O)N3CCOCC3)cc2)C1(C)C (stereo not drawn) — lower, 7.69%
- CCCC(CCC)C(=O)OC[N+](C)(C)CCOC(=O)C(O)(c1ccccc1)C1CCCC1.[Cl-] (stereo not drawn) — lower, 10.9%
- COc1ccc(Nc2nc(N)nc(CSc3n[nH]c(-c4ccccc4)n3)n2)cc1 — lower, -0.95%
- CCOc1ccc(N2C(=O)CC(N(CCc3ccc(OC)cc3)C(=O)c3cccc(F)c3)C2=O)cc1 (stereo not drawn) — lower, -23.2%
- Cc1cc(C(F)(F)F)nc(-n2cc(-c3ccccc3)nn2)n1 — lower, -1.75%
- [Br-].c1ccc(C[n+]2ccc3ccccc3c2)cc1 — lower, 11.1%
- COc1cc(C(=O)N(CCc2ccccc2)C2=CC3CCC(C2)N3C)cc(OC)c1OC.Cl.O (stereo not drawn) — lower, -13.5%
- O=C1CSC(=S)N1c1cccc(F)c1 — higher, 13.1%
- COC(=O)[C@@H]1C[C@H]2CC[C@H](O)C[C@H]2N1Cc1ccc(Cl)cc1 — lower, 7%
- CC(=O)CCc1ccc(OCC(O)CNCCOc2ccc(C)cc2)cc1 (stereo not drawn) — lower, -13.2%
- Cc1ccccc1OC(=O)c1cccnc1 — lower, 9.31%
- CC1=NN(C(=O)c2c(Br)c(C)nn2C)C(O)(C(F)(F)F)C1 (stereo not drawn) — lower, 3.91%
- CCC(Oc1ccc(C)cc1)C(=O)Nc1ccc(S(=O)(=O)Nc2cc(C)on2)cc1 (stereo not drawn) — higher, 20.5%
- O=C1ON=C(c2ccccc2)/C1=C\c1ccco1 — lower, 3.9%
